The full ranking holds about 33,000 sequences; the median of “E-score (-0.5 to 0.5)” is about -0.017, and the highest 2% start at about 0.3. The list shows a part of the results.
Molecular target: T1, Sut1 (UniProt P53032)
T1 sequence: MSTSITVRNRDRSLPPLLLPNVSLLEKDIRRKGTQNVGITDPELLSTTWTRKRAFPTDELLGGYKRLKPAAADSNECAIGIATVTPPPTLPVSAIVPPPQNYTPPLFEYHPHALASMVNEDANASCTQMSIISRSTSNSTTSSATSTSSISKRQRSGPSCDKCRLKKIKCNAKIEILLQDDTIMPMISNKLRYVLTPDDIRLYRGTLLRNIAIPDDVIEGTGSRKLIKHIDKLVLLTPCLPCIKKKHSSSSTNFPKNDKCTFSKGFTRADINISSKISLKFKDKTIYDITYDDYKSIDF
Experiment: PBM E-score (8-mer binding enrichment) (E-score (-0.5 to 0.5)); higher = stronger / more preferred TF binding; most listed sequences are background and not binding sites
Details: protein concentration: 200 nM; construct: GST-full length
Procedure, shortened: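 Universal all-10-mer Agilent arrays, double-stranded by primer extension on fresh or once-stripped slides, were probed with about 100-200 nM GST-tagged yeast transcription factors made by PURExpress. Fluorescent anti-GST detected bound protein, and masliner normalised the scans. E-scores from the Universal PBM Analysis Suite were given to each ungapped eight-base word pooled with its reverse complement.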

| Sequence | PBM E-score |
| --- | --- |
| ACCATCGA | -0.151 |
| ACACGTTC | 0.00118 |
| TGACATCA | -0.0471 |
| AAGAAACC | 0.13 |
| ACATTTGA | 0.034 |
| TAAGCGAA | 0.175 |
| AATCTTGC | 0.0892 |
| ACGGCCGG | -0.0505 |
| GTTGCAAC | 0.205 |
| CTACATAA | -0.0515 |
| CATAGGCC | -0.26 |
| ACTATTAC | 0.129 |
| CCTGGAGC | -0.256 |
| CTAAAGTC | 0.00063 |
| TATAACCA | 0.195 |
| CTTGGCGA | -0.156 |
| AAGAGCTA | -0.0379 |
| CAAGGATG | -0.253 |
| AGACCAAC | -0.00773 |
| CCAACCTC | -0.0984 |
| GGCTCAAA | -0.00447 |
| ACTCGCCC | -0.247 |
| AAAAATAT | 0.248 |
| GCGATCAC | -0.132 |
| ACGCTATG | -0.184 |

| Sequence | PBM E-score |
| --- | --- |
| CTAGGATA | -0.137 |
| CGTGAACG | -0.207 |
| CCATTCCC | -0.15 |
| CGTTCACC | 0.117 |
| AAAACGTA | 0.125 |
| ATTGATTG | 0.161 |
| ATAAATTG | 0.268 |
| GCTTTAAC | -0.0118 |
| AAAACATA | 0.194 |
| AGTATCTC | 0.116 |
| AATACGTG | -0.0995 |
| GACGGATC | 0.00624 |
| GACTTTGC | 0.0488 |
| CCCGCGCG | 0.00082 |
| GAGAGAAA | 0.0959 |
| GCCAGCTA | -0.293 |
| GGCCGGAC | 0.302 |
| CGGGTGAA | 0.141 |
| ATCCAGGG | -0.244 |
| CGTCGCCA | -0.133 |
| CTGCCTAC | -0.0133 |
| AGTCCGGG | 0.485 |
| TAACCGTA | -0.0185 |
| GCTATTCA | 0.0978 |
| GGACCCAA | -0.0167 |

| Sequence | PBM E-score |
| --- | --- |
| GCTATACC | -0.134 |
| AGCACCTG | -0.127 |
| CGCTCACC | -0.145 |
| AATGCCAA | 0.0414 |
| ACCTGCCC | -0.282 |
| AAACAAGC | 0.0434 |
| AACGGTCC | -0.0984 |
| GTTACGGA | 0.231 |
| ACACTCAA | 0.0928 |
| AAGCTACC | -0.0295 |
| TACTCGCA | 0.0383 |
| AACTCTTA | 0.126 |
| GGCCCGAC | -0.109 |
| ATGTATTA | 0.251 |
| CGCACCGC | -0.133 |
| ATCGAGGA | 0.0113 |
| GACATCGA | -0.157 |
| CGCACGCC | -0.0167 |
| ATTTGTTC | 0.286 |
| ACTCTCTG | -0.0936 |
| GGTCGTAA | -0.0279 |
| GCTGTACC | -0.103 |
| CCGGGACA | 0.17 |
| AAGGTGCG | -0.00385 |
| AGGATTAG | -0.0387 |

| Sequence | PBM E-score |
| --- | --- |
| GAGACAAC | -0.0176 |
| AAAGCAGT | 0.0204 |
| CAGACCTG | -0.0841 |
| CTTATCTC | 0.0713 |
| AACGAGGG | -0.199 |
| AGGTTAAT | 0.0927 |
| ACTCAGAA | 0.112 |
| AGGCATAC | -0.0745 |
| ACATTCAA | 0.175 |
| AATAACCT | 0.12 |
| GAGTGTCC | 0.107 |
| AATGGCCC | -0.277 |
| CGGAATGC | 0.122 |
| ACGTCACG | -0.103 |
| GAGGTGAC | 0.0848 |
| CCATCATA | 0.0522 |
| AGCTTACC | 0.0119 |
| AACACCAC | 0.0652 |
| GCTGAAAA | 0.16 |
| CGGATCCA | 0.115 |
| AGTAGTCA | -0.1 |
| GAAGGCTA | -0.0663 |
| CTATGAAC | 0.0322 |
| CTCTTTTC | -0.0102 |
| CTGAGAAA | -0.0651 |

| Sequence | PBM E-score |
| --- | --- |
| AAGATGCG | -0.0649 |
| CTCCCGGA | 0.232 |
| AACACGAA | 0.128 |
| GACGTGTA | -0.0944 |
| AGGTTTAC | -0.0352 |
| AGAGGACT | -0.258 |
| AAGTACAA | 0.00208 |
| CTCCCCTC | -0.134 |
| CACGACAA | 0.00429 |
| GGGTATCA | -0.0925 |
| ATCCGATA | 0.215 |
| ATGCGCGA | -0.0204 |
| TCGATCCA | -0.127 |
| ATCACAAG | 0.00308 |
| ACTGGAGA | -0.0654 |
| ATGCTTGA | 0.0338 |
| ATCAGCAA | -0.171 |
| AAAGACCC | 0.0566 |
| CGTGCAAA | -0.0235 |
| CCAGATCC | -0.113 |
| GGCAAACA | -0.119 |
| ACTAATTG | 0.0824 |
| CCCATTAG | -0.38 |
| ATATGAGA | 0.0865 |
| GAGAGTGC | -0.104 |

| Sequence | PBM E-score |
| --- | --- |
| GAACGTGC | -0.234 |
| ACGTCGAG | -0.248 |
| CGACGTAC | 0.0978 |
| CGTAGACG | -0.0853 |
| GCGTGTAA | -0.18 |
| CGCCCTAC | -0.118 |
| AACAACTC | -0.0194 |
| ACGGTCCG | 0.0302 |
| GGGCACAA | -0.151 |
| GTCGAAGA | 0.0646 |
| GGGAGAGA | -0.189 |
| CTCTAGAA | -0.0857 |
| CCTTGGGC | -0.218 |
| AGCTTTAG | 0.0455 |
| TCATATAA | 0.121 |
| AGCTGCCT | -0.172 |
| ATCGAATA | 0.0868 |
| GTACATCA | 0.111 |
| CCACCAGA | -0.234 |
| TAAATTCA | 0.133 |
| AACCGGTA | -0.0996 |
| TAAGCTGA | -0.0432 |
| CAATCCAC | 0.127 |
| ACCGTGTA | -0.0124 |
| CTCACCAC | -0.0825 |

| Sequence | PBM E-score |
| --- | --- |
| CTGAAGAA | -0.116 |
| TAACCTAA | 0.147 |
| GAATTGGC | -0.0577 |
| ATAAACAT | 0.288 |
| GTATGCAA | 0.0449 |
| CTGTAAGA | 0.0631 |
| CCGTCTAA | 0.0557 |
| AAGGCGAG | -0.271 |
| GTTGAAAA | 0.104 |
| ATGAAAAT | 0.17 |
| TAAGAGGA | 0.11 |
| ATGGCCAC | -0.246 |
| AAAATTAC | 0.237 |
| CAGTTCAG | -0.0755 |
| CTCACCCC | 0.0815 |
| CGTCCCAA | -0.0843 |
| CGCCGCGA | 0.0357 |
| GTTAACTA | 0.215 |
| CATCTCCC | -0.138 |
| ACCTATAG | -0.115 |
| CTCAAGAC | -0.095 |
| GCAAAAAC | 0.149 |
| AGGCCATG | -0.206 |
| CCTCATAC | -0.18 |
| TCAGTAAA | 0.149 |

| Sequence | PBM E-score |
| --- | --- |
| AGTGACTA | -0.0144 |
| ACAGATGC | -0.0584 |
| AACCGACT | 0.124 |
| CGACTGCA | -0.0805 |
| AACAAACC | 0.0984 |
| GAGGAGAA | -0.27 |
| CATAACTA | 0.142 |
| CAGGGAGC | -0.326 |
| CTCAGTGC | -0.0955 |
| CTTAGCCA | -0.155 |
| CGGGTACG | -0.171 |
| CGCACAAG | -0.13 |
| AAAAGATT | 0.0975 |
| CAGAGCTA | -0.331 |
| CACATTTC | 0.25 |
| CAATACAA | 0.154 |
| GGTGCCTA | -0.151 |
| CTAGCGCA | -0.174 |
| CTCGGGAA | -0.0661 |
| AGTAACAC | 0.0225 |
| TACATGTA | 0.204 |
| CCCCCCAC | -0.359 |
| CCAGACTA | -0.209 |
| ATGGGACC | -0.22 |
| CCAATTAG | 0.0805 |

| Sequence | PBM E-score |
| --- | --- |
| GTCGGCCA | -0.268 |
| CCCTAAAA | 0.0224 |
| ACCAAGCG | -0.00241 |
| CCGATCAA | 0.108 |
| GGATGAAC | 0.0615 |
| GGGCGGAA | -0.0137 |
| TAATAGTA | 0.283 |
| ATCGGAAG | 0.253 |
| CCTAGGAG | -0.177 |
| AACGGACT | 0.444 |
| ACGGCACA | -0.158 |
| GTTTATTA | 0.302 |
| GTCCTCCA | -0.101 |
| ACATCCAA | -0.00081 |
| ATAGATCA | 0.0921 |
| AGTTAGAC | 0.168 |
| GGTAGCAA | -0.02 |
| TATCTAGA | 0.0246 |
| AGTCAGAA | 0.0251 |

Reference: the supplement of paper PMC3334620
